Assay [1] deals with T1, RIP1 (Homo sapiens, UniProt Q13546).
T1 construct: purchased DiscoverX (KINOMEscan service); host or cells: E. coli BL21-derived (T7 phage) or HEK293
T1 sequence (Q13546 1-671): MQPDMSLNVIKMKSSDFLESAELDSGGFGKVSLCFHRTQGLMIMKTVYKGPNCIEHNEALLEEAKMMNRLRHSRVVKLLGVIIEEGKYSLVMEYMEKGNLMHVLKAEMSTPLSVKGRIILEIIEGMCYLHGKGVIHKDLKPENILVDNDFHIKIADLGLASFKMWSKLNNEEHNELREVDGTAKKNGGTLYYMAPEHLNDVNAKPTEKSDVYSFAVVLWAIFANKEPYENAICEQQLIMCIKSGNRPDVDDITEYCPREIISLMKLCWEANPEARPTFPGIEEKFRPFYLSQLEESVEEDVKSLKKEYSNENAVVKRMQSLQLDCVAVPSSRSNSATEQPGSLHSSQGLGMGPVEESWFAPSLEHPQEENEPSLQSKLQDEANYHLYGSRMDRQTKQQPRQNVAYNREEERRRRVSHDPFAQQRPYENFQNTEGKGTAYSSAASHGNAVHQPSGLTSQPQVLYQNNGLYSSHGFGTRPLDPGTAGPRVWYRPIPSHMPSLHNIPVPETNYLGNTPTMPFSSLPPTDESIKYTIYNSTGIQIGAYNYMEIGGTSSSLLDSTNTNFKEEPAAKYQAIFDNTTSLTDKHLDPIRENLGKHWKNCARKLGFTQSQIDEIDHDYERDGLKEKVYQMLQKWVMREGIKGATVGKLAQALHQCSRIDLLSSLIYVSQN
The assay is described as follows: KINOMEscan binding assay, RIP1. The conditions noted are these: equilibrium dissociation constant, class symbols.

The target of assay [2] is T2, MLKL (full length) (Homo sapiens, UniProt Q8NB16).
T2 construct: purchased DiscoverX (KINOMEscan service); host or cells: E. coli BL21-derived (T7 phage) or HEK293
T2 sequence (Q8NB16 1-471): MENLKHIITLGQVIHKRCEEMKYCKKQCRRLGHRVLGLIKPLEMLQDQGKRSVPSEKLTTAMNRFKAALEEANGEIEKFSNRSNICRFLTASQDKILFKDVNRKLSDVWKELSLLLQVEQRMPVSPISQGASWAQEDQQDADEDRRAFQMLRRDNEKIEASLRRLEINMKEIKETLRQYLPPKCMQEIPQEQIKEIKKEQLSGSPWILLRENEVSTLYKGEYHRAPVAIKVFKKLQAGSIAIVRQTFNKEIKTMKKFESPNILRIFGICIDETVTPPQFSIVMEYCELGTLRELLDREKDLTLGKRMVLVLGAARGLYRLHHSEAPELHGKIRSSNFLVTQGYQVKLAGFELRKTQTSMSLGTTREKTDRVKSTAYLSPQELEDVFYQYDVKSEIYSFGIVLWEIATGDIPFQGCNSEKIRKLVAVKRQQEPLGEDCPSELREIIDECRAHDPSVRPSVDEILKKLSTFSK
As to the kind of experiment: KINOMEscan binding assay, MLKL. The note with it: equilibrium dissociation constant, class symbols. The text has this:
The Hill Slope was set to −1.

As for `C[C@H](Oc1cc(-c2n[nH]c(Nc3cc(C45CC6CC(CC(C6)C4)C5)on3)c2C(N)=O)ccc1NS(=O)(=O)C(F)F)c1ccc(F)cc1` [Compound 304, (S)-5-((5-(adamantan-1-yl)isoxazol-3-yl)amino)-3-(4-((difluoromethyl)sulfonamido)-3-(1-(4-fluorophenyl)ethoxy)phenyl)-1H-pyrazole-4-carboxamide], the Kd (as a rule, the free concentration of one partner at which half of the binding sites on the other are occupied at equilibrium, for simple one-to-one binding) in assay [1] was over 30 µM; in assay [2], 10 to 1000 nM.

Regarding `Cc1nccc(Nc2[nH]nc(-c3ccc(NS(=O)(=O)C(F)F)c(O[C@@H](C)c4ccc(F)cc4)c3)c2C(N)=O)n1` [Compound 309, (S)-3-(4-((difluoromethyl)sulfonamido)-3-(1-(4-fluorophenyl)ethoxy)phenyl)-5-((2-methylpyrimidin-4-yl)amino)-1H-pyrazole-4-carboxamide], the Kd in assay [1] is over 30 µM; in assay [2] it was under 10 nM.

Values taken from patent US12583836B2 (Anaxis Pharma Pty Ltd, priority 2020, dated 2026).
